# The other results are listed elsewhere or left out.
# What was measured:
# Test in all cases: glycan array binding signal (z-score within array); higher = stronger binding
# Conditions in all cases: glycan notation: IUPAC condensed, linker removed
# [1] = molecular target: GlcNAc(b1-4)GlcNAc(b1-4)GlcNAc(b1-4)GlcNAc(b1-4)GlcNAc
# In short: (§1)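 Columns mapping to the same glycan were averaged after glycan names were converted to IUPAC-condensed notation. The data come from 3228 arrays in the Consortium for Functional Glycomics database, limited to those with an available protein sequence. Binding is reported as a within-array Z-score averaged across arrays of one protein sequence and across linkers.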
# [2] = molecular target: GlcNAc(b1-4)GlcNAc(b1-4)GlcNAc(b1-4)GlcNAc(b1-4)GlcNAc(b1-4)GlcNAc
# In short: as §1
# [3] = molecular target: GlcNAc(b1-4)[GlcNAc(b1-6)]GalNAc
# In short: as §1
# [4] = molecular target: GlcNAc(b1-6)Gal(b1-4)GlcNAc
# In short: as §1
# GlcNAc(b1-6)GalNAc = molecular target: GlcNAc(b1-6)GalNAc
# In short: as §1
# [5] = molecular target: GlcNAc6S(b1-3)Gal(b1-4)GlcNAc
# In short: as §1
# Kdn(a2-3)Gal(b1-3)GalNAc = molecular target: Kdn(a2-3)Gal(b1-3)GalNAc
# In short: as §1
# Kdn(a2-3)Gal(b1-3)GlcNAc = molecular target: Kdn(a2-3)Gal(b1-3)GlcNAc
# In short: as §1
# Kdn(a2-3)Gal(b1-4)Glc = molecular target: Kdn(a2-3)Gal(b1-4)Glc
# In short: as §1
# Kdn(a2-3)Gal(b1-4)GlcNAc = molecular target: Kdn(a2-3)Gal(b1-4)GlcNAc
# In short: as §1
# [6] = molecular target: Kdn(a2-3)Gal(b1-4)[Fuc(a1-3)]GlcNAc
# In short: as §1
# Kdn(a2-6)Gal(b1-4)GlcNAc = molecular target: Kdn(a2-6)Gal(b1-4)GlcNAc
# In short: as §1
# [7] = molecular target: Man(a1-2)Man(a1-2)Man(a1-3)Man
# In short: as §1
# [8] = molecular target: Man(a1-2)Man(a1-2)Man(a1-6)[Man(a1-3)]Man
# In short: as §1
# Man(a1-2)Man(a1-3)Man = molecular target: Man(a1-2)Man(a1-3)Man
# In short: as §1
# [9] = molecular target: Man(a1-2)Man(a1-3)[Man(a1-2)Man(a1-6)]Man
# In short: as §1
# [10] = molecular target: Man(a1-2)Man(a1-3)[Man(a1-2)Man(a1-6)]Man(a1-6)[Man(a1-2)Man(a1-2)Man(a1-3)]Man
# In short: as §1
# [11] = molecular target: Man(a1-2)Man(a1-3)[Man(a1-2)Man(a1-6)]Man(a1-6)[Man(a1-2)Man(a1-2)Man(a1-3)]Man(b1-4)GlcNAc(b1-4)GlcNAc
# In short: as §1
# [12] = molecular target: Man(a1-2)Man(a1-3)[Man(a1-6)]Man(a1-6)[Man(a1-2)Man(a1-3)]Man(b1-4)GlcNAc(b1-4)GlcNAc
# In short: as §1
# [13] = molecular target: Man(a1-2)Man(a1-6)[Man(a1-3)]Man(a1-6)[Man(a1-2)Man(a1-2)Man(a1-3)]Man
# In short: as §1
# [14] = molecular target: Man(a1-2)Man(a1-6)[Man(a1-3)]Man(a1-6)[Man(a1-2)Man(a1-2)Man(a1-3)]Man(b1-4)GlcNAc(b1-4)GlcNAc
# In short: as §1
# Man(a1-3)[Man(a1-6)]Man = molecular target: Man(a1-3)[Man(a1-6)]Man
# In short: as §1
# [15] = molecular target: Man(a1-3)[Man(a1-6)]Man(a1-6)[Man(a1-2)Man(a1-3)]Man(b1-4)GlcNAc(b1-4)GlcNAc
# In short: as §1
# [16] = molecular target: Man(a1-3)[Man(a1-6)]Man(a1-6)[Man(a1-3)]Man
# In short: as §1
# [17] = molecular target: Man(a1-3)[Man(a1-6)]Man(a1-6)[Man(a1-3)]Man(b1-4)GlcNAc(b1-4)GlcNAc
# In short: as §1
# [18] = molecular target: Man(a1-3)[Man(a1-6)]Man(b1-4)GlcNAc(b1-4)GlcNAc
# In short: as §1
# [19] = molecular target: Man(a1-3)[Man(a1-6)]Man(b1-4)GlcNAc(b1-4)[Fuc(a1-6)]GlcNAc
# In short: as §1
# Man(a1-6)Man = molecular target: Man(a1-6)Man
# In short: as §1
# Man(b1-4)GlcNAc = molecular target: Man(b1-4)GlcNAc
# In short: as §1
# MurNAc(b1-4)GlcNAc = molecular target: MurNAc(b1-4)GlcNAc
# In short: as §1
# Neu5Ac(a2-3)Gal = molecular target: Neu5Ac(a2-3)Gal
# In short: as §1
# [20] = molecular target: Neu5Ac(a2-3)Gal(b1-3)GalNAc
# In short: as §1
# [21] = molecular target: Neu5Ac(a2-3)Gal(b1-3)GalNAc(b1-3)Gal(a1-4)Gal(b1-4)Glc
# In short: as §1
# [22] = molecular target: Neu5Ac(a2-3)Gal(b1-3)GalNAc(b1-4)Gal(b1-4)Glc
# In short: as §1
# [23] = molecular target: Neu5Ac(a2-3)Gal(b1-3)GalNAc(b1-4)[Neu5Ac(a2-3)]Gal(b1-4)Glc
# In short: as §1
# [24] = molecular target: Neu5Ac(a2-3)Gal(b1-3)GalNAc(b1-4)[Neu5Ac(a2-8)Neu5Ac(a2-3)]Gal(b1-4)Glc
# In short: as §1
# [25] = molecular target: Neu5Ac(a2-3)Gal(b1-3)GalNAc6S
# In short: as §1
# [26] = molecular target: Neu5Ac(a2-3)Gal(b1-3)GlcNAc
# In short: as §1
# [27] = molecular target: Neu5Ac(a2-3)Gal(b1-3)GlcNAc(b1-2)Man
# In short: as §1
# [28] = molecular target: Neu5Ac(a2-3)Gal(b1-3)GlcNAc(b1-2)Man(a1-3)[GlcNAc(b1-4)][Neu5Ac(a2-3)Gal(b1-3)GlcNAc(b1-2)Man(a1-6)]Man(b1-4)GlcNAc(b1-4)GlcNAc
# In short: as §1
# [29] = molecular target: Neu5Ac(a2-3)Gal(b1-3)GlcNAc(b1-2)Man(a1-3)[Neu5Ac(a2-3)Gal(b1-3)GlcNAc(b1-2)Man(a1-6)]Man(b1-4)GlcNAc(b1-4)GlcNAc
# In short: as §1
# [30] = molecular target: Neu5Ac(a2-3)Gal(b1-3)GlcNAc(b1-2)[Neu5Ac(a2-3)Gal(b1-3)GlcNAc(b1-4)]Man(a1-6)[Neu5Ac(a2-3)Gal(b1-3)GlcNAc(b1-2)Man(a1-3)]Man(b1-4)GlcNAc(b1-4)GlcNAc
# In short: as §1
# [31] = molecular target: Neu5Ac(a2-3)Gal(b1-3)GlcNAc(b1-3)Gal(b1-3)GlcNAc
# In short: as §1
# [32] = molecular target: Neu5Ac(a2-3)Gal(b1-3)GlcNAc(b1-3)Gal(b1-4)GlcNAc
# In short: as §1
# [33] = molecular target: Neu5Ac(a2-3)Gal(b1-3)GlcNAc(b1-3)GalNAc
# In short: as §1
binder,measurement,setting,value
DrGal3 (Danio rerio) (protein) MDLSDALDAPPQQNNQQAGGPVWPGQPANPVWPGQPANPTWPGQPNQPAWPGQPNQQWPGQPGQPTAPGWPGPAPQTGPYGAPGQAPQVLTVPLDFPLQNGAYNKMLITINGEVKPNAKQFTVNLRRGNDIAFHINPRFSEGGKPVIVRNSMIGNNWGREERELPSFPFVPGKPFEMKILITDTEYKVAVNKSHLLEFKHRVFELNQITGLSIYNDVTLSTVNVETLQ,glycan array binding signal (z-score),[1],-0.275
same,glycan array binding signal (z-score),[2],-0.217
same,glycan array binding signal (z-score),[3],-0.25
same,glycan array binding signal (z-score),[4],-0.221
same,glycan array binding signal (z-score),GlcNAc(b1-6)GalNAc,-0.26
same,glycan array binding signal (z-score),[5],-0.183
same,glycan array binding signal (z-score),Kdn(a2-3)Gal(b1-3)GalNAc,-0.239
same,glycan array binding signal (z-score),Kdn(a2-3)Gal(b1-3)GlcNAc,-0.284
same,glycan array binding signal (z-score),Kdn(a2-3)Gal(b1-4)Glc,-0.234
same,glycan array binding signal (z-score),Kdn(a2-3)Gal(b1-4)GlcNAc,-0.17
same,glycan array binding signal (z-score),[6],-0.192
same,glycan array binding signal (z-score),Kdn(a2-6)Gal(b1-4)GlcNAc,-0.191
same,glycan array binding signal (z-score),[7],-0.241
same,glycan array binding signal (z-score),[8],-0.28
same,glycan array binding signal (z-score),Man(a1-2)Man(a1-3)Man,-0.211
same,glycan array binding signal (z-score),[9],-0.254
same,glycan array binding signal (z-score),[10],-0.252
same,glycan array binding signal (z-score),[11],-0.253
same,glycan array binding signal (z-score),[12],-0.249
same,glycan array binding signal (z-score),[13],-0.241
same,glycan array binding signal (z-score),[14],-0.191
same,glycan array binding signal (z-score),Man(a1-3)[Man(a1-6)]Man,-0.222
same,glycan array binding signal (z-score),[15],-0.182
same,glycan array binding signal (z-score),[16],-0.265
same,glycan array binding signal (z-score),[17],-0.265
same,glycan array binding signal (z-score),[18],-0.225
same,glycan array binding signal (z-score),[19],-0.239
same,glycan array binding signal (z-score),Man(a1-6)Man,-0.257
same,glycan array binding signal (z-score),Man(b1-4)GlcNAc,-0.176
same,glycan array binding signal (z-score),MurNAc(b1-4)GlcNAc,-0.132
same,glycan array binding signal (z-score),Neu5Ac(a2-3)Gal,-0.229
same,glycan array binding signal (z-score),[20],-0.24
same,glycan array binding signal (z-score),[21],-0.259
same,glycan array binding signal (z-score),[22],-0.238
same,glycan array binding signal (z-score),[23],-0.246
same,glycan array binding signal (z-score),[24],-0.283
same,glycan array binding signal (z-score),[25],-0.266
same,glycan array binding signal (z-score),[26],-0.241
same,glycan array binding signal (z-score),[27],-0.256
same,glycan array binding signal (z-score),[28],-0.271
same,glycan array binding signal (z-score),[29],-0.226
same,glycan array binding signal (z-score),[30],-0.228
same,glycan array binding signal (z-score),[31],-0.282
same,glycan array binding signal (z-score),[32],-0.2
same,glycan array binding signal (z-score),[33],-0.28

# Reference: the supplement of paper PMC8728848
